This is an account of results in paper PMC2940742.

In assay [1] the target is T1, N-terminal half of SRFR1 (a.a 1-567), TPR domain, two-hybrid bait (Arabidopsis) (UniProt F4JS25).
T1 sequence: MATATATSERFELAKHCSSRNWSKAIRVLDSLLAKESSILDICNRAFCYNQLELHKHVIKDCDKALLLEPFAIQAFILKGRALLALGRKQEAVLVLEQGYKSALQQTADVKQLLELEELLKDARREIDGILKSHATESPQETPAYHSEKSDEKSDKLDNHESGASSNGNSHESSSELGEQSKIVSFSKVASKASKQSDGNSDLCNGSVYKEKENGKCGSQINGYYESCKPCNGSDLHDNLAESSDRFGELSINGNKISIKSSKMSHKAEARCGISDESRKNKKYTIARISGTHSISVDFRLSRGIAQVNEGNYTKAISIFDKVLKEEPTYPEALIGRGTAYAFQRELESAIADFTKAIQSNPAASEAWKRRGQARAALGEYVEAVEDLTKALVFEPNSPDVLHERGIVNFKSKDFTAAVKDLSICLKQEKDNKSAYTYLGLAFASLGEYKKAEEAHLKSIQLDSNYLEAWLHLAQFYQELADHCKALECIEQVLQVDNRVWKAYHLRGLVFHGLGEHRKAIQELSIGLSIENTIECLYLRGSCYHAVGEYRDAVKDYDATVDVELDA
Description: two-hybrid; β-Gal assays in yeast (data not shown).

Assay [2] has as its target T2, SRFR1 (SUPPRESSOR OF rps4-RLD), full-length, two-hybrid bait (Arabidopsis) (UniProt F4JS25).
T2 sequence: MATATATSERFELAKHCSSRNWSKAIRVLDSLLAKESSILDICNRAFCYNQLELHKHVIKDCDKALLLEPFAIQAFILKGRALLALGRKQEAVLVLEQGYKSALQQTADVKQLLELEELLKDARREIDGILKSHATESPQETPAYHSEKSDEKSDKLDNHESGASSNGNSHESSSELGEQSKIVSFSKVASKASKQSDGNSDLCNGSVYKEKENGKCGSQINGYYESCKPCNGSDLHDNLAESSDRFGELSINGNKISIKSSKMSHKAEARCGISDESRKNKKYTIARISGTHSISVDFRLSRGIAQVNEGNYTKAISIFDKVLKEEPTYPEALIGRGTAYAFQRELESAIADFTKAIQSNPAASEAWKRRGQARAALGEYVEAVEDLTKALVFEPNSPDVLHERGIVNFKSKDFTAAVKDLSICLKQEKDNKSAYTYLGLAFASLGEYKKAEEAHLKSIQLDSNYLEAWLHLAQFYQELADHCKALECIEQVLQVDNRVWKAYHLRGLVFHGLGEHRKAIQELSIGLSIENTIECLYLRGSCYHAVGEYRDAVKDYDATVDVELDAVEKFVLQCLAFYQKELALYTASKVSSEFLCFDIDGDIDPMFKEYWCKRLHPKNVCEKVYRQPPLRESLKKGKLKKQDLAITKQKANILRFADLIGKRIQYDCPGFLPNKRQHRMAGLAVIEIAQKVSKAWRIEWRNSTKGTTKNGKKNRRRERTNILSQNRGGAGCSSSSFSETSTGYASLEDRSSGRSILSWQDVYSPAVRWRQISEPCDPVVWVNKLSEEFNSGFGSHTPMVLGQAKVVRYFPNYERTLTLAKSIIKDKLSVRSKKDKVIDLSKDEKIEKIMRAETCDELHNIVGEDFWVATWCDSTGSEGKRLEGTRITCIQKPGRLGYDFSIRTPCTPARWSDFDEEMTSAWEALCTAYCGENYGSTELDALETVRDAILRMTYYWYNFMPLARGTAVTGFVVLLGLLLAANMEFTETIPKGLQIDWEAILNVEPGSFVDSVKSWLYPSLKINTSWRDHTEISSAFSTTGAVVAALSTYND
Description: two-hybrid; β-Gal assays in yeast (data not shown).

Assay [3] has as its target T2, SRFR1 (SUPPRESSOR OF rps4-RLD), full-length, two-hybrid bait (Arabidopsis). The assay can be described thus: two-hybrid; library screen: full-length SRFR1 in pGBKT7 as bait, Arabidopsis prey library in pGADT7, yeast strain Y1348, selection on SD-Leu-Trp-His with 3 mM 3AT (data not shown).
The target in assay [4] is T3, C-terminal half of SRFR1 (a.a. 568-1052), two-hybrid bait (Arabidopsis) (UniProt F4JS25).
T3 sequence: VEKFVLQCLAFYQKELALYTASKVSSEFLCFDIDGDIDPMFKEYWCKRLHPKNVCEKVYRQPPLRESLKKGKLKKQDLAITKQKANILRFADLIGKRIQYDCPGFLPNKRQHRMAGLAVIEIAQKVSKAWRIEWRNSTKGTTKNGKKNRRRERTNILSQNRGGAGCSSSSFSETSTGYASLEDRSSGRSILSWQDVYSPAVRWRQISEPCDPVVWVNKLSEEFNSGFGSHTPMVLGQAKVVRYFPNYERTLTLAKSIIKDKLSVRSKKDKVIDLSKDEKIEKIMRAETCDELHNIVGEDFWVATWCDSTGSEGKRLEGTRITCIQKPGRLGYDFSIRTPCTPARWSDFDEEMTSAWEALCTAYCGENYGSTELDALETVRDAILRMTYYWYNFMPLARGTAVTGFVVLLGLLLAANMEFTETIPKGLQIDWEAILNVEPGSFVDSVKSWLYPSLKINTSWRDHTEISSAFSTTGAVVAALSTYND
Description: two-hybrid; yeast growth assay: SRFR1 constructs in pGBKT7 (bait) and SGT1 constructs in pGADT7 (prey) co-transformed into strain Y1348; diluted cultures plated on SD-Leu-Trp and SD-Leu-Trp-His.

Assay [5] concerns the target T1, N-terminal half of SRFR1 (a.a 1-567), TPR domain, two-hybrid bait (Arabidopsis). The description is as above.
Assay [6] deals with T2, SRFR1 (SUPPRESSOR OF rps4-RLD), full-length, two-hybrid bait (Arabidopsis). The description is as above.

No constants are given. Whether binding was seen depends on the method and setting. Some binding calls cover weakened binding; strength is not graded here.

B1: SGT1b (library cDNA clone encoding amino acid 6-358), two-hybrid prey (protein, UniProt Q9SUT5 6-358)
chain: AEKAKEAFLDDDFDVAVDLYSKAIDLDPNCAAFFADRAQANIKIDNFTEAVVDANKAIELEPTLAKAYLRKGTACMKLEEYSTAKAALEKGASVAPNEPKFKKMIDECDLRIAEEEKDLVQPMPPSLPSSSTTPLATEADAPPVPIPAAPAKPMFRHEFYQKPEEAVVTIFAKKVPKENVTVEFGEQILSVVIDVAGEEAYHLQPRLFGKIIPEKCRFEVLSTKVEIRLAKAEIITWASLEYGKGQSVLPKPNVSSALSQRPVYPSSKPAKDWDKLEAEVKKQEKDEKLDGDAAMNKFFSDIYSSADEDMRRAMNKSFAESNGTVLSTNWKEVGTKKVESTPPDGMELKKWEY
In the case of B1, the binding result in assay [1] was “binds”; in assay [2] it was “binds”; in assay [3], “binds”; in assay [4], “no binding”; in assay [5] it was “binds”; in assay [6], “binds”.

B2: SGT1b_(1-120), two-hybrid prey (domain or fragment, UniProt Q9SUT5 1-120)
chain: MAKELAEKAKEAFLDDDFDVAVDLYSKAIDLDPNCAAFFADRAQANIKIDNFTEAVVDANKAIELEPTLAKAYLRKGTACMKLEEYSTAKAALEKGASVAPNEPKFKKMIDECDLRIAEE
For B2, the binding result in assay [1] and in assay [5] was “binds” throughout.

B3: SGT1b_(121-358), two-hybrid prey (domain or fragment, UniProt Q9SUT5 121-358)
chain: EKDLVQPMPPSLPSSSTTPLATEADAPPVPIPAAPAKPMFRHEFYQKPEEAVVTIFAKKVPKENVTVEFGEQILSVVIDVAGEEAYHLQPRLFGKIIPEKCRFEVLSTKVEIRLAKAEIITWASLEYGKGQSVLPKPNVSSALSQRPVYPSSKPAKDWDKLEAEVKKQEKDEKLDGDAAMNKFFSDIYSSADEDMRRAMNKSFAESNGTVLSTNWKEVGTKKVESTPPDGMELKKWEY
Take B3: in assay [5], the binding entry was “no binding”.

B4: N-terminal half of SRFR1 (a.a 1-567), TPR domain, two-hybrid bait (domain or fragment, UniProt F4JS25-1 1-567)
chain: T1 sequence
For B4, the binding result in assay [5] was “no binding”.

B5: SGT1a_(121-351), two-hybrid prey (domain or fragment, UniProt Q9SUR9 121-350)
chain: EKDLVQPVPSTLPSSVTAPPVSELDVTPTAKYRHEYYQKPEEVVVTVFAKGIPKQNVNIDFGEQILSVVIEVPGEDAYYLQPRLFGKIIPDKCKYEVLSTKIEICLAKADIITWASLEHGKGPAVLPKPNVSSEVSQRPAYPSSKKVKDWDKLEAEVKKQEKDEKLEGDAALNKFFREIYQNADEDMRRAMSKSFVESNGTVLSTNWQEVGTKTIESTPPDGMELKKWEI
On to B5, for which the binding result in assay [5] is on record as “no binding”.
